Assay results from patent US20240174727A1, “LONG-ACTING NATRIURETIC PEPTIDES AND USES THEREOF” (Eli Lilly and Company, priority 2022, published 2024).
At least one structure is not confirmed: it was looked up by name or label, or the drawing left a doubt. Some compounds share one wording; it may come from a single statement.

How the values were obtained:
[1] = system: plasma cGMP; assay: In vivo dog studies, plasma cGMP ELISA; design: species or system male purebred beagle dogs; details: for Net cGMP (nM) Change from Baseline: dog plasma, single SC dose (60 nmol/kg Example 2; 50 nmol/kg Examples 4, 7)
[2] = system: plasma cGMP; assay: In vivo monkey studies, plasma cGMP ELISA; design: species or system male cynomolgus monkeys; details: monkey plasma; for Net cGMP (nM) Change from Baseline 0.083 h: 0.083 h postdose; for Net cGMP (nM) Change from Baseline 0.25 h: 0.25 h postdose; for Net cGMP (nM) Change from Baseline 0.5 h: 0.5 h postdose; for Net cGMP (nM) Change from Baseline 1 h: 1 h postdose; for Net cGMP (nM) Change from Baseline 2 h: 2 h postdose; for Net cGMP (nM) Change from Baseline 4 h: 4 h postdose
Protocol: In vivo monkey studies were conducted as described in detail below. Young adult-to-adult male cynomolgus monkeys were given a single dose subcutaneously (SC). Blood was collected predose and at various pre-determined timepoints throughout the study period. Aliquot of cynomolgus monkey plasma was received for cyclic cGMP (cGMP) measurement and stored at −80° C. prior to use.
Control plasma was made for determining the recovery rate of spike-in cGMP using Enzo cGMP complete ELISA kit (Enzo Life Sciences, Inc, Farmingdale, NY, cat no. ADI-901-164). Briefly, blood from male Sprague Dawley rats (Inotiv, Indianapolis, IN), about 7 months old, was collected in a BD Vacutainer EDTA tube (Becton Dickinson, Franklin Lakes, NJ, cat no. BD-367856) with volume of approximate 4 mL through retro orbital bleeding. Plasma was prepared by spinning the tube in an Eppendorf Refrigerated Centrifuge 5810R (Brinkman Instruments, Inc, Westbury, NY) at 3500 rpm (3000×g) for 10 min at 4° C. Plasma was collected as Positive Control plasma. Cyclic GMP (cGMP standard from Enzo cGMP complete ELISA kit) was added to the positive control plasma at a final concentration of additional 40 nM. Positive Control and Spiked-in Control plasma were aliquoted and stored at −80° C.
The cGMP content was measured using the Enzo cGMP complete ELISA kit following the manufacturer's directions with modifications as described below. The cGMP standards provided in the kit were diluted 1:3 ranging from 50 nM to 0.023 nM in 1× assay buffer that was diluted in water from 2× assay buffer provided in the kit. The cGMP standards ([…]) were transferred to a 96-well polypropylene plate (Thermo Scientific, cat no. 442587).
Plasma samples were thawed from −80° C. and diluted 1:20 in 1× assay buffer in the above plate with a final volume of 150 μL. Assay buffer was added (150 μL) for both a non-specific binding control (in the absence of cGMP antibody) and a maximum binding control (in the absence of competing cGMP) in duplicate wells. Positive Control and Spiked-in Control plasma were diluted 1:20 in 1× assay buffer with a final volume of 150 μL in duplicate wells of the above plate. All diluted plasma was mixed by pipetting up and down several times.
Acetylation reagent mix was prepared by adding 1-part of acetic anhydride into 2-parts of triethylamine provided in the kit and mixing well using Vortex (Scientific Industries, Inc, Bohemia, NY). All controls, standards, and plasma samples were acetylated by adding 15 μL of acetylation reagent mix into the plate, one column at a time, and shaking for 1 min on a Titer Plate Shaker (Lab-Line Instrument, Inc., Melrose Park, IL) at room temperature. The plate was shaken for an additional 1 min following the acetylation of the last column to ensure the reaction was completed.
Acetylated controls, standard and plasma samples were transferred (100 μL) to an ELISA plate (n=1). Then 50 μL of cGMP conjugate were added to each well followed by the addition of 50 μL cGMP antibody to each well except for two non-specific binding wells, in which 50 μL of 1× assay buffer were added. The plate was then sealed and shaken for 2 h at room temperature on the plate shaker. Following this incubation, the plate was washed five times using 200 μL of 1× wash buffer diluted in water from 5× wash buffer provided in the kit. Then, 200 μL of para-Nitrophenylphosphate (pNpp) were added to each well. The plate was sealed with a new plate sealer and shaken in dark for 1 h at room temperature on the plate shaker. Finally, 50 μL of stop solution were added to each well to stop the enzyme reaction. The plate was then read at 405 nm using SpectraMax Plus (Molecular Devices, San Jose, CA).
The mean absorbance at 405 nm (O.D. 405 nm) for the non-specific binding controls was subtracted from the O.D. 405 nm of all samples. The subtracted O.D. 405 nm of all samples were then normalized with the mean subtracted O.D. 405 nm of the maximum binding controls as B/B0%. […]

CC[C@H](C)[C@@H]1NC(=O)[C@H](CCCNC(=N)N)NC(=O)[C@H](CC(=O)O)NC(=O)[C@H]([C@@H](C)CC)NC(=O)[C@H](CCCNC(=N)N)NC(=O)CNC(=O)CNC(=O)[C@H](Cc2ccccc2)NC(=O)[C@@H](NC(=O)[C@H](CO)NC(=O)[C@H](CO)NC(=O)[C@H](CCCNC(=N)N)NC(=O)[C@H](CCCNC(=N)N)NC(=O)[C@H](Cc2ccncc2)NC(=O)[C@H](CO)NC(=O)CNC(=O)[C@H](CCCCN)NC(=O)[C@H](CCC(=O)O)NC(=O)[C@H](CCCCN)NC(=O)[C@H](CCC(=O)O)NC(=O)[C@H](CCCCN)NC(=O)[C@H](CCC(=O)O)NC(=O)CC[C@H](NC(=O)CCCCCCCCCCCCCCCCCCC(=O)O)C(=O)O)CSCSC[C@@H](C(=O)N2CCC[C@H]2C(=O)N[C@@H](CO)C(=O)N[C@@H](Cc2ccccc2)C(=O)N[C@@H](CCCNC(=N)N)C(=O)N[C@@H](Cc2c[nH]cn2)C(=O)NCC(=O)NCC(=O)N2CCC[C@H]2C(=O)N[C@@H](CO)C(=O)N[C@@H](CO)C(=O)NCC(=O)N[C@@H](C)C(=O)N2CCC[C@H]2C(=O)N2CCC[C@H]2C(=O)N2CCC[C@H]2C(=O)N[C@@H](CO)C(N)=O)NC(=O)CNC(=O)[C@H](CC(C)C)NC(=O)CNC(=O)[C@H](CO)NC(=O)[C@H](CCC(N)=O)NC(=O)[C@H](Cc2c[nH]cn2)NC(=O)CNC1=O [Example 2]
Net cGMP (nM) Change from Baseline ([1]; 0.083 h): -5.29 nM | Net cGMP (nM) Change from Baseline ([1]; 0.25 h): 1.61 nM | Net cGMP (nM) Change from Baseline ([1]; 0.5 h): 40.41 nM | Net cGMP (nM) Change from Baseline ([1]; 1 h): 101 nM | Net cGMP (nM) Change from Baseline ([1]; 2 h): 29.72 nM | Net cGMP (nM) Change from Baseline ([1]; 4 h): 60.64 nM | Net cGMP (nM) Change from Baseline ([1]; 8 h): 68.79 nM | Net cGMP (nM) Change from Baseline ([1]; 12 h): 83.51 nM | Net cGMP (nM) Change from Baseline ([1]; 24 h): 90.36 nM | Net cGMP (nM) Change from Baseline ([1]; 36 h): 80.86 nM | Net cGMP (nM) Change from Baseline ([1]; 48 h): 80.82 nM | Net cGMP (nM) Change from Baseline ([1]; 72 h): 64.85 nM | Net cGMP (nM) Change from Baseline ([1]; 96 h): 58.58 nM | Net cGMP (nM) Change from Baseline ([1]; 120 h): 47.41 nM | Net cGMP (nM) Change from Baseline ([1]; 144 h): 43.47 nM | Net cGMP (nM) Change from Baseline ([1]; 168 h): 19.04 nM | net cGMP levels (result in words) ([1]; dogs, single SC dose, plasma): increased net cGMP levels | Net cGMP (nM) Change from Baseline 0.083 h ([2]; dose 30 nmol/kg): 1.39 nM | Net cGMP (nM) Change from Baseline 0.25 h ([2]; dose 30 nmol/kg): 4.06 nM | Net cGMP (nM) Change from Baseline 0.5 h ([2]; dose 30 nmol/kg): 4.07 nM | Net cGMP (nM) Change from Baseline 1 h ([2]; dose 30 nmol/kg): 4.19 nM | Net cGMP (nM) Change from Baseline 2 h ([2]; dose 30 nmol/kg): -0.22 nM | Net cGMP (nM) Change from Baseline 4 h ([2]; dose 30 nmol/kg): 0.08 nM | Net cGMP (nM) Change from Baseline 8 h ([2]; dose 30 nmol/kg, 8 h postdose): 3.28 nM | Net cGMP (nM) Change from Baseline 12 h ([2]; dose 30 nmol/kg, 12 h postdose): 3.34 nM | Net cGMP (nM) Change from Baseline 24 h ([2]; dose 30 nmol/kg, 24 h postdose): 8.88 nM | Net cGMP (nM) Change from Baseline 48 h ([2]; dose 30 nmol/kg, 48 h postdose): 6.46 nM | Net cGMP (nM) Change from Baseline 72 h ([2]; dose 30 nmol/kg, 72 h postdose): 6.21 nM | Net cGMP (nM) Change from Baseline 96 h ([2]; dose 30 nmol/kg, 96 h postdose): 4.47 nM | Net cGMP (nM) Change from Baseline 120 h ([2]; dose 30 nmol/kg, 120 h postdose): 4.89 nM | Net cGMP (nM) Change from Baseline 144 h ([2]; dose 30 nmol/kg, 144 h postdose): 6.49 nM | Net cGMP (nM) Change from Baseline 168 h ([2]; dose 30 nmol/kg, 168 h postdose): 5.95 nM | Net cGMP (nM) Change from Baseline 0.083 h ([2]; dose 100 nmol/kg): 2.8 nM | Net cGMP (nM) Change from Baseline 0.25 h ([2]; dose 100 nmol/kg): 12.56 nM | Net cGMP (nM) Change from Baseline 0.5 h ([2]; dose 100 nmol/kg): 11.31 nM | Net cGMP (nM) Change from Baseline 1 h ([2]; dose 100 nmol/kg): 8.62 nM | Net cGMP (nM) Change from Baseline 2 h ([2]; dose 100 nmol/kg): 0.5 nM | Net cGMP (nM) Change from Baseline 4 h ([2]; dose 100 nmol/kg): 2.54 nM
